Measured values taken from PubChem BioAssay AID1508624 (National Center for Advancing Translational Sciences (NCATS), 2021).
About 120 (0.25%) of roughly 48,000 compounds were called active. Inconclusive results, whose numbers are uncertain, are shown with a selection of clear calls. Calls follow the shape of the dose curve; as a rule, active = well fitted activation curve with a large enough effect; inconclusive = small, poorly fitted or top-dose-only effect, or another doubt; inactive = no such curve, though single readings can be large or run the other way. Potencies of inconclusive entries are doubtful fits and often do not repeat.

Experiment: Primary qHTS for Identification of Small Molecule Activators of Huntingtin-Antisense Promoter Activity; also: nearly all actives have a fitted effect of over 55% in size
Conditions: HEK293 HTT-AS promoter firefly luciferase reporter, 24 h; activity change, positive = activation: at 57.5 µM (top of the series), percent change from vehicle, -100% = no light
Method in brief: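 Firefly luciferase readout (Dual-Glo, 10 min RT) after 24 h, 37 °C compound exposure (final up to 57.5 uM) of HEK293 reporter cells cultured 24 h beforehand; PTC124 at 50 uM final as control inhibitor; activity scaled vehicle 0%, zero RLU -100%.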
Potency is read from the fitted curve at half-maximal effect; tags tell the direction and shape of the fitted curve.

| SMILES | activity change, positive = activation | Potency |
| --- | --- | --- |
| COc1cc(C(CC(=O)NCc2ccccc2Cl)N2Cc3ccccc3C2=O)cc(OC)c1OC (configuration not stated) | inconclusive: -35.2% [activator] | – |
| O=c1c2cc3c(cc2nc2sc(Nc4ccccc4)nn12)OCO3 | – | inconclusive: 3.16 µM [activator, full curve] |
| Cc1ccc2sc(-c3ccc(N)cc3)nc2c1 | inconclusive: -9.68% [activator] | – |
| CCC(=O)N1CCc2cc(CNC(=O)c3ccccc3C)ccc21 | – | inconclusive: 17.8 µM [activator, partial curve, poor fit] |
| CCc1ccc(NC(=O)NCCc2c(C)nn(C)c2C)cc1 | – | inconclusive: 39.8 µM [activator, single point] |
| CN1CCCN(C(=O)c2cccc(-c3ccc(C=C4C(=O)Nc5ccc(Cl)cc54)o3)c2)CC1 | inactive: -23.5% | – |
| CC/C=C(\C(=O)N[C@@H]1C(=O)N2C(C(=O)OCOC(=O)C(C)(C)C)=C(COC(N)=O)CS[C@H]12)c1csc(N)n1 | – | inactive |
| CCCOc1ccc(-c2nc3ccc(Br)cc3c(=O)o2)cc1 | inactive: 6% | – |
| C=CCc1cccc2cc(-c3nc4ccc(C(=O)O)cc4[nH]3)c(=O)oc12 | – | inconclusive: 1 µM [activator, partial curve, poor fit] |
| Cc1ccc2nc(-c3ccc(NC(=O)COc4ccccc4C(C)(C)C)cc3)sc2c1 | – | inconclusive: 1.58 µM [activator, full curve, poor fit] |
| CCCCN(CC)CCCNC(=O)c1cc2c(=O)oc3ccc(C)cc3c2s1 | inactive: -6.86% | – |
| Cn1c(C(=O)NCCc2ccccc2)cc2sc(Cl)cc21 | – | inconclusive: 1 µM [activator, partial curve, poor fit] |
| CC(=O)c1ccc(NC(=O)CC2Nc3cc(C)c(C)cc3NC2=O)cc1 (configuration not stated) | inactive: -52.8% | – |
| COc1cccc(-c2oc3ccc(C)cc3c(=O)c2O)c1 | – | inconclusive: 1.58 µM [activator, partial curve, poor fit] |
| O=S(=O)(c1ccc(-c2csc(=Nc3ccc(F)cc3)n2CCCCCCO)cc1)N1CCCC1 | inactive: -91.9% | – |
| COc1ccc(-n2c(=O)c3c(c4cc(OC)ccc4n3C)n(CCC(C)C)c2=O)cc1 | inactive: -16.6% | – |
| COc1ccc(N2C(=O)CSC23C(=O)N(CC(N)=O)c2ccccc23)cc1 (configuration not stated) | inconclusive: 29% [activator] | – |
| CC(=O)Nc1ccc(S(=O)(=O)Nc2cc(-c3cn4ccccc4n3)ccc2C)cc1 | – | inconclusive: 7.08 µM [activator, partial curve] |
| CCn1c(=O)cc(OCC(=O)N2CCN(c3ccc(OC)cc3)CC2)c2ccccc21 | inactive: -16.9% | – |
| CCN1CCN(c2ncnc3c2cnn3-c2ccc(C)c(C)c2)CC1 | – | inconclusive: 1.41 µM [activator, full curve, poor fit] |
| COc1cccc(CNCCSc2nnnn2C)c1OCc1ccccc1F | inactive: -18.1% | – |
| Cc1nc([N+](=O)[O-])cn1-c1ccc([N+](=O)[O-])cc1 | inactive: -7.45% | – |
| CO[C@@H]1[C@@H](O[C@@H]2O[C@H](C)[C@@H](O[C@H]3C[C@@](C)(O)[C@@H](O)[C@H](C)O3)[C@H](N(C)C)[C@H]2O)[C@@H](CC=O)C[C@@H](C)[C@@H](O[C@@H]2CC[C@H](N(C)C)[C@@H](C)O2)/C=C/C=C/C[C@@H](C)OC(=O)C[C@H]1OC(C)=O | inactive: -7.2% | – |

| SMILES | activity change, positive = activation | Potency |
| --- | --- | --- |
| COc1cccc(-c2ccc3c(N)c(C(=O)Nc4cc(F)ccc4F)sc3n2)c1 | – | inconclusive: 14.1 µM [activator, partial curve, poor fit] |
| COc1ccc(CNc2ncnc3c2cnn3-c2ccc(C)c(C)c2)cc1 | inconclusive: 54.6% [activator] | – |
| Cc1ccc(CNc2nccn(-c3cc(C)cc(C)c3)c2=O)cc1 | inactive: -12.9% | – |
| Cc1c(C(=O)NC(C)c2ccccc2)sc2nc3n(c(=O)c12)CCCC3 (configuration not stated) | inconclusive: -39% [activator] | – |
| CC1CCN(C(=O)c2cccc(NC(=O)c3nsc4ccccc34)c2)CC1 | – | inconclusive: 0.355 µM [activator, full curve, poor fit] |
| COc1ccc(C(=O)NCCn2cc(SCC(=O)Nc3ccc4c(c3)OCCO4)c3ccccc32)cc1OC | inactive: -31.3% | – |
| COc1ccccc1C(=O)OCc1cc(=O)n2nc(C(C)C)sc2n1 | – | inconclusive: 25.1 µM [activator, partial curve, poor fit] |
| COc1ccc(-c2noc(-c3ccc(NCC4CCCO4)c([N+](=O)[O-])c3)n2)cc1OC (configuration not stated) | inconclusive: 24.7% [activator] | – |
| Cc1ccc(CNC(=O)Cn2c(=O)n(Cc3ccc(F)cc3)c(=O)c3sc4ccccc4c32)cc1 | inactive: -1.09% | – |
| O=C(Nc1ccc(Cl)cc1)N1CCC(c2ccccc2)C1 (configuration not stated) | – | inconclusive: 1.58 µM [activator, partial curve, poor fit] |
| O=C(C1CC1)N1CCN(c2nc3c(F)cc(F)cc3s2)CC1 | – | inconclusive: 11.2 µM [activator, partial curve] |
| Cc1ccc(Nc2ncnc3c2nc2n3CCCC2)c(Br)c1 | – | inconclusive: 0.199 µM [activator, full curve, poor fit] |
| CC(=O)c1ccc(NC(=O)CSc2nnc(NC(=O)Nc3ccccc3)s2)cc1 | – | inconclusive: 31.6 µM [activator, single point] |
| CCc1ccccc1NC(=O)c1sc2nc3n(c(=O)c2c1C)CCC3 | – | inconclusive: 14.1 µM [activator, partial curve] |
| Cc1ccc(-c2cn3c(n2)sc2cc(C(=O)NCc4cccs4)ccc23)c(C)c1 | – | inconclusive: 1.26 µM [activator, partial curve, poor fit] |
| CN(Cc1ccccc1)C(=O)c1cccc(NC(=O)c2nsc3ccccc23)c1 | – | inconclusive: 1 µM [activator, full curve, poor fit] |
| Nc1ccccc1N | – | inconclusive: 1 µM [activator, full curve, poor fit] |
| COc1ccc(-c2cn3c(n2)sc2cc(C(=O)Nc4ccc(F)cc4Cl)ccc23)cc1 | – | inconclusive: 0.891 µM [activator, partial curve, poor fit] |
| Cc1ccc(NC(=O)Cc2ccc(-n3c(C)nc4cccnc43)cc2)c(Cl)c1 | inactive: -41.3% | – |
| COc1ccc(CCNC(=O)C(=O)Nc2ccccc2F)cc1 | inactive: 17.9% | – |
| NC(=O)C1CCN(C(=O)c2ccc(NC(=O)c3nsc4ccccc34)cc2)CC1 | – | inconclusive: 0.199 µM [activator, full curve, poor fit] |
| O=C(Nc1cc(-c2nc3cc(Cl)ccc3o2)ccc1Cl)c1ccco1 | – | inconclusive: 14.1 µM [activator, partial curve] |
| COc1ccc2cc(C=O)ccc2c1 | inactive: 4.78% | – |

| SMILES | activity change, positive = activation | Potency |
| --- | --- | --- |
| CCn1c(=O)c(C(=O)Nc2ccc(C(C)=O)cc2)nc2ccccc21 | – | inconclusive: 31.6 µM [activator, partial curve, poor fit] |
| COc1ccc(C(=O)N2c3ccccc3C(C)(c3ccc(Cl)cc3)CC2(C)C)cc1 (configuration not stated) | inactive: -42.5% | – |
| Brc1ccc(-c2noc(-c3ccccc3)n2)o1 | – | inconclusive: 1.26 µM [activator, full curve, poor fit] |
| NCC(=O)Nc1ccc(-n2nc(C(F)(F)F)cc2-c2ccc3c(ccc4ccccc43)c2)cc1 | inactive: -24.9% | – |
| CCOc1ccccc1NC(=O)n1ncc2cc(Cl)ccc21 | – | inconclusive: 3.55 µM [activator, partial curve, poor fit] |
| O=c1c(O)c(-c2ccc(O)c(O)c2)oc2cc(O)ccc12 | inactive: -17.9% | – |
| COc1ccc(Cl)cc1NC(=O)CSC1=Nc2ccccc2C2=NC(CCC(=O)NCc3ccc(F)cc3)C(=O)N12 (configuration not stated) | inactive: -21.4% | – |
| CCn1c(=O)c2cc(C(=O)NCCCN3CCN(c4ccc(F)cc4)CC3)sc2c2ccccc21 | inactive: -8.6% | – |
| CC(C)Oc1ccc(CNC(=O)c2ccc3c(c2)nc2n3CCCCC2)cc1 | – | inconclusive: 1.78 µM [activator, full curve, poor fit] |
| CC(C)c1ccc(C2=CC(c3cccc(Cl)c3)n3c(nc4ccccc43)N2)cc1 (configuration not stated) | – | inconclusive: 0.631 µM [activator, full curve, poor fit] |
| Nc1c(C(=O)Nc2cccc(F)c2)nnn1-c1cccc(C(F)(F)F)c1 | – | inconclusive: 1.78 µM [activator, full curve] |
| CC(C)C(=O)OCc1cccc(OC(=O)[C@@H]2N3C(=O)[C@@H](NC(=O)Cc4ccccc4)[C@H]3SC2(C)C)c1 | inactive: -2.96% | – |
| O=C(Nc1ccc(C(=O)N2CCN(c3ccccc3F)CC2)cc1)c1nsc2ccccc12 | – | inconclusive: 0.891 µM [activator, full curve, poor fit] |
| CCc1ccc(NC(=O)Nc2ccccc2OCc2cc(=O)n3ccccc3n2)cc1 | – | inconclusive: 1.41 µM [activator, full curve, poor fit] |
| CCCCNc1ccc(-c2nc(-c3ccccn3)no2)cc1[N+](=O)[O-] | – | inconclusive: 1 µM [activator, partial curve, poor fit] |
| Cc1ccc(Nc2c(-c3ccc(C)s3)nc3ccccn23)cc1 | – | inconclusive: 2.24 µM [activator, full curve] |
| O=C(Nc1cccc(C(F)(F)F)c1)c1cnn(-c2cccc(F)c2)c1C1CCNCC1 | inactive: -12.6% | – |
| CCc1cccc(C)c1NC(=O)Cn1nc(C)n2cccc2c1=O | inactive: -17.1% | – |
| Cc1cccc(NC(=O)CSc2ncc(-c3ccccc3)[nH]2)c1C | – | inconclusive: 20 µM [activator, partial curve, poor fit] |
| Cc1cc(C(=O)N2CCN(c3ccccc3)CC2)c2c(C)nn(-c3cccc(F)c3)c2n1 | inactive: -11.3% | – |
| Cc1ccccc1CCNC(=O)c1ccc2c(c1)nc1n2CCOC1 | – | inconclusive: 0.891 µM [activator, partial curve, poor fit] |
